The text below walks through data of a collection of fitness landscapes (doi:10.1016/j.celrep.2020.107928).

Over roughly 81,000 sequences, “one-hybrid fitness for binding NBS DNA” has its median near -0.1; the highest 2% begin near 0.36. Some of the results follow.

The chains are these.
B1: Caulobacter ParB omega fusion; a variant is named by its letters at X, in order, B8GW30 (parent)
chain: MESVVVGEPGMSEGRRGLGRGLSALLGEVDAAPAQAPGEQLGGSREAPIEILQRNPDQPRRTFREEDLEDLSNSIREKGVLQPILVRPSPDTAGEYQIVAGERAWRAAQRAGLKTVPIMVRELDDLAVLEIGIIENVQRADLNVLEEALSYKVLMEKFERTQENIAQTIGKSXSHVANXMRLLXLPDEVQSYLVSGELTAXHARAIAAAADPVALAKQIIEGGLSVRETEALARKAPNLSAGKSKGGRPPRVKDTDTQALESDLSSVLGLDVSIDHRGSTGTLTITYATLEQLDDLCNRLTRGI

This assay covers variants of B1. In words: one-hybrid fitness for binding NBS DNA (the Noc-binding site; scaled: cognate 1, non-cognate 0); higher = stronger binding. Particulars: with NBS DNA site. In short, it runs like this: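 On M9-minus-histidine containing 0.1 mM IPTG and 5 mM 3-AT, E. coli USO cells with a HIS3 reporter, site 19 bp from the promoter, grew 48 hours at 37°C to select Caulobacter ParB libraries randomised at four specificity codons. Plasmids from before and after were Illumina-sequenced, with three replicate libraries pooled and variants under 10 reads left out. Fitness is the log change in variant-to-wild-type read ratio, rescaled against cognate and non-cognate.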
For EAQE, the “one-hybrid fitness for binding NBS DNA” value is at most 0.2.
With PHRV the figure was at most 0.2; with AVHA, at most 0.2; with MCMT, at most 0.2.
With WFTF, the “one-hybrid fitness for binding NBS DNA” value was at most 0.2.
The value for QYDD was at most 0.2; that for TTTI was at most 0.2; that for SRFT was at most 0.2.
The value for ITHS was at most 0.2.
For QARG, the “one-hybrid fitness for binding NBS DNA” value was determined as 0.313.
The value for FWAR was at most 0.2; that for PQGG was at most 0.2.
With ALLC the figure was at most 0.2; with DTYL, at most 0.2; with QDQW, at most 0.2.
As to IYHA, the “one-hybrid fitness for binding NBS DNA” value was at most 0.2.
The value for RERM was at most 0.2.
As for LGHC, the “one-hybrid fitness for binding NBS DNA” value was at most 0.2.
Turning to RWKD, the “one-hybrid fitness for binding NBS DNA” value was at most 0.2.
The value for KETI was at most 0.2; that for KCWK was at most 0.2; that for KVHM was at most 0.2.
With EDPS the figure was at most 0.2.
RQFQ: the “one-hybrid fitness for binding NBS DNA” value is at most 0.2.
The value for TNTL was at most 0.2.
The value for NINK was at most 0.2; that for VKCS was at most 0.2.
With SRLM the figure was at most 0.2; with GDYT, at most 0.2.
For the variant RFLW, the “one-hybrid fitness for binding NBS DNA” value is at most 0.2.
Regarding YRKM, the “one-hybrid fitness for binding NBS DNA” value was at most 0.2.
With DLQL the figure was at most 0.2.
With MLVH the figure was at most 0.2.
The value for IPFG was at most 0.2; that for MCSG was at most 0.2.
On to LKSA, for which the “one-hybrid fitness for binding NBS DNA” value is at most 0.2.
The value for QFQL was at most 0.2; that for RWNI was at most 0.2; that for DFTS was at most 0.2.
The value for AKRL was at most 0.2; that for TSPD was at most 0.2.
With HAKG the figure was at most 0.2; with LDDR, at most 0.2; with DTMK, at most 0.2.
Take TETW: the “one-hybrid fitness for binding NBS DNA” value was at most 0.2.
With CTQR the figure was at most 0.2; with RIDS, at most 0.2; with SPNI, at most 0.2.
With FASH the figure was at most 0.2; with AAYC, at most 0.2.
With MWPW the figure was at most 0.2; with YTFT, at most 0.2.
Regarding QKWA, the “one-hybrid fitness for binding NBS DNA” value is at most 0.2.
The value for HSAK was at most 0.2.
The value for WLCI was at most 0.2; that for HIGF was at most 0.2; that for PICG was at most 0.2.
The value for DEVA was at most 0.2.
As for PIHY, the “one-hybrid fitness for binding NBS DNA” value is at most 0.2.
The value for WSQY was at most 0.2; that for FCTI was at most 0.2.
The value for CIRT was at most 0.2; that for RPQF was at most 0.2.
With APFV the figure was at most 0.2; with FWTN, at most 0.2; with ARVY, at most 0.2.
As for AEVT, the “one-hybrid fitness for binding NBS DNA” value is at most 0.2.
The value for YVTV was at most 0.2; that for VPQM was at most 0.2.
The value for FAHC was at most 0.2; that for DIYL was at most 0.2; that for RAGY was at most 0.2.
The value for YEEK was at most 0.2; that for DAPI was at most 0.2.
On to ALWF, for which the “one-hybrid fitness for binding NBS DNA” value is at most 0.2.
The value for RSDI was at most 0.2.
In the case of QNHE, the “one-hybrid fitness for binding NBS DNA” value was at most 0.2.
With HLCY the figure was at most 0.2; with RILE, at most 0.2; with PVKM, at most 0.2.
As to HLCH, the “one-hybrid fitness for binding NBS DNA” value was at most 0.2.
With YTPE the figure was at most 0.2; with GETR, at most 0.2.
The value for PYIT was at most 0.2; that for MCAS was at most 0.2.
The value for MEPG was at most 0.2.
Regarding QAWY, the “one-hybrid fitness for binding NBS DNA” value is at most 0.2.
The value for KYSG was at most 0.2.
With AHTC the figure was at most 0.2; with RGLY, at most 0.2.
With HVSN the figure was at most 0.2; with DAQT, at most 0.2.
Regarding GRQS, the “one-hybrid fitness for binding NBS DNA” value was at most 0.2.
With TQAC, the “one-hybrid fitness for binding NBS DNA” value is at most 0.2.
On to STNS, for which the “one-hybrid fitness for binding NBS DNA” value was at most 0.2.
As for RGPL, the “one-hybrid fitness for binding NBS DNA” value was at most 0.2.
With HKNF, the “one-hybrid fitness for binding NBS DNA” value was at most 0.2.
With PGVD the figure was at most 0.2; with RLTW, at most 0.2; with LCIY, at most 0.2.
LMRP: the “one-hybrid fitness for binding NBS DNA” value was at most 0.2.
The value for PWTT was at most 0.2; that for YVQS was at most 0.2; that for NDST was at most 0.2.
As for GDNT, the “one-hybrid fitness for binding NBS DNA” value was at most 0.2.
The value for RFKF was at most 0.2.
Regarding RHFC, the “one-hybrid fitness for binding NBS DNA” value was at most 0.2.
The value for ETRF was at most 0.2; that for SLEG was at most 0.2; that for ATGQ was at most 0.2.
With VEYG the figure was at most 0.2; with NGTA, at most 0.2; with RMRY, 0.353.
With ERHT the figure was at most 0.2; with HTKS, at most 0.2.
As to KLPR, the “one-hybrid fitness for binding NBS DNA” value was at most 0.2.
The value for IMSY was at most 0.2.
With GSVL the figure was at most 0.2; with KLYF, at most 0.2; with SIQT, at most 0.2.
The value for RDLT was at most 0.2; that for RQFD was at most 0.2.
Consider NDYC, for which the “one-hybrid fitness for binding NBS DNA” value is at most 0.2.
With LLCR the figure was at most 0.2; with EYKC, at most 0.2.
The value for VPVS was at most 0.2.
The value for THAW was at most 0.2; that for SIRA was at most 0.2; that for HNKR was at most 0.2.
In the case of MVCV, the “one-hybrid fitness for binding NBS DNA” value is at most 0.2.
With SPGI the figure was at most 0.2; with DWAC, at most 0.2; with HRFN, at most 0.2.
With SPQQ, the “one-hybrid fitness for binding NBS DNA” value was at most 0.2.
With SPTV the figure was at most 0.2.
In the case of GVSD, the “one-hybrid fitness for binding NBS DNA” value is at most 0.2.
Consider IAKL, for which the “one-hybrid fitness for binding NBS DNA” value was at most 0.2.
Take SDWV: the “one-hybrid fitness for binding NBS DNA” value is at most 0.2.
With RNMT the figure was at most 0.2; with SRSC, at most 0.2.
The value for MGRL was at most 0.2; that for GYEI was at most 0.2; that for TVGT was at most 0.2.
On to MEVS, for which the “one-hybrid fitness for binding NBS DNA” value was at most 0.2.
The value for GHPM was at most 0.2.
Consider SCRR, for which the “one-hybrid fitness for binding NBS DNA” value amounted to 0.205.
The value for PNCM was at most 0.2; that for TFNV was at most 0.2.
With IHPS the figure was at most 0.2.
With HYKW the figure was at most 0.2.
With YDTT, the “one-hybrid fitness for binding NBS DNA” value was at most 0.2.
With ANWS the figure was at most 0.2.
As to RICK, the “one-hybrid fitness for binding NBS DNA” value is at most 0.2.
